The campaign covered roughly 150,000 compounds. About 540 (0.36%) showed an effect of 50% or more. The list shows a part of the results.
What follows are compounds tested on Plasmodium falciparum (assay: Primary screen in NF54 nanoGlo assay, in single point, at 2uM, 72h; a lower Z score goes with more inhibition). Conditions: timepoint 72 hour.
Type: functional, Erythrocyte

Row | SMILES | % Inhibition | Z score
1 | COc1ccc(CC2CCN(C(=O)NCc3ccccn3)CC2)cc1 | -16% | 1.96
2 | C=C(C)C[C@H](NC(C)=O)C(=O)NCc1cccc(OCC)c1 | 1% | -0.22
3 | CCOc1cc2cc(c1)C(=O)N(C)CC(=O)N[C@@H]1CN(Cc3noc(C4CC4)n3)CC[C@@H]1OCc1cccc(c1)O2 | -17% | 2.12
4 | Cc1oc(S(=O)(=O)N(C)C)cc1-c1nc(C2CC2)no1 | -13% | 1.35
5 | O=C(Cc1ccccc1)Nc1ccc(-c2nc3cc(Cl)ccc3o2)cc1 | -12% | 2.32
6 | CCn1cnc2c(NCc3cnn4c3CCCC4)ncnc21 | -2% | 0.29
7 | CCC[C@H]1CN(Cc2nccn2Cc2ccccc2)C[C@@H]1NS(C)(=O)=O | -7% | 1.02
8 | Cc1cccc2c(CC(=O)N3C[C@@H]4CCC[C@]4(C(N)=O)C3)c[nH]c12 | -15% | 2.53
9 | CC[C@@H](C(=O)N1CCN(c2ccnc3nncn23)CC1)N1CCCC1 | -4% | 0.61
10 | O=C(OC1CCOCC1)N1CCC[C@H](Oc2ccncc2Cl)C1 | 4% | -0.53
11 | Cc1nc(CN2CCC[C@H](CN3CCOCC3)C2)n(C)c1C | -2% | 0.45
12 | COc1cc(C(=O)NCc2noc(Cc3ccccc3)n2)cc(OC)c1OC | -2% | 0.25
13 | COc1ccc(/C=C/c2nc(-c3cccc(-c4csc(C)n4)c3)no2)cc1 | -10% | 1.09
14 | N#C[C@@H](C(=O)NCc1ccccc1)c1nc2ccccc2s1 | -2% | 0.39
15 | Cc1ccc(-c2onc(C)c2C(=O)Nc2nc3ccc(S(C)(=O)=O)cc3s2)cc1 | 1% | -0.15
16 | CCc1nc(-c2cc(S(=O)(=O)NC3CCCC3)c(C)s2)no1 | -11% | 1.09
17 | COc1ccc(NC(=O)CC(=O)N2Cc3ccccc3C2)c(OC)c1 | -1% | 0.16
18 | COc1cc(C(=O)NCCCN2CCCC2=O)on1 | 10% | -1.58
19 | CC(C)C(=O)N1CCC[C@H]1C(=O)NC1CCCCC1 | -4% | 0.58
20 | CNC(=O)c1cccnc1NCC1(O)CCCCC1 | -14% | 1.85
21 | CCOC(CCNC(=O)N1CC2CCC1C2)C(C)C (stereo not drawn) | 4% | -0.53

Row | SMILES | % Inhibition | Z score
22 | O=c1ccc(N2CCN(S(=O)(=O)c3ccccc3F)CC2)nn1-c1ccc(Cl)cc1 | 26% | -3.07
23 | Cc1cc(O)nc2ccc(NC(=O)c3cccc(F)c3)cc12 | 5% | -0.52
24 | C[C@H]1CC(=O)N(CCOc2ccc(Cl)cc2)C1=O | 4% | -0.51
25 | O=C(NC[C@H](OCCO)c1cccs1)c1cccs1 | -22% | 3.21
26 | CCCNC(=O)N1CCC(F)(C(=O)N2CCOCC2)CC1 | 9% | -1.14
27 | COCc1ccc(C(=O)N2Cc3c(-c4ccncc4)nc(N)nc3[C@@H]2C)o1 | 0% | -0.04
28 | CCCCNc1cc(N2CCN(C(=O)C(=O)N3CCOCC3)CC2)nc(N)n1 | -10% | 1.33
29 | Cc1cc(NC(=O)N2CC3(CCCC3)[C@@H]2C(C)C)nn1C | 32% | -3.58
30 | CC(=O)Nc1ccc(-c2n[nH]c(N)c2Cl)cc1 | -8% | 1.33
31 | c1ccc(CC2CCN(Cc3cscn3)CC2)cc1 | 4% | -0.73
32 | COc1ccc(-c2ccc(=O)n(-c3c(C)noc3C)n2)cc1S(=O)(=O)Nc1ccc(F)c(F)c1 | 17% | -1.95
33 | CCS(=O)(=O)NC[C@H](C)N1CC(Oc2cccc(Cl)c2)C1 | 2% | -0.26
34 | CN1CC[C@@]2(CCCN(C(=O)c3cccc(-c4ccc(O)cc4)c3)C2)C1 | -7% | 0.99
35 | COc1ncc(-c2cc(-n3cccn3)ncn2)c(OC)n1 | -11% | 1.45
36 | O=C(O)C1CCCC(C(=O)Nc2ccsc2)C1 (stereo not drawn) | -9% | 0.88
37 | Cc1c(C(=O)NCCC(C)C)c(C(F)(F)F)nn1C(C)C | -11% | 1.67
38 | Cc1nc(CC(N)=NOCc2ccc(C(N)=O)cc2)cs1 | -12% | 1.26
39 | O=C1CN(c2ncccc2Cl)CN1CC(F)(F)F | 10% | -1.89
40 | CC(c1ccccc1)n1cc(NC(=O)N2CC[C@@H]3OCC[C@@H]3C2)cn1 (stereo partly drawn) | 8% | -1.01
41 | C=CCCS(=O)(=O)NC[C@H](O)c1ccccc1C | 2% | -0.27
42 | Cc1ccc(-c2csc(-c3cccn3CC(=O)NCCN3CCOCC3)n2)cc1 | -6% | 0.81

Row | SMILES | % Inhibition | Z score
43 | Fc1cccc(F)c1[C@H]1CCN(c2ncnc3[nH]ccc23)C1 | 16% | -2.06
44 | N#Cc1ccc(N2CC3CCC(O)CC3C2)nc1N1CC2CCC(O)CC2C1 (stereo not drawn) | -4% | 0.67
45 | Cc1c(-c2ccc(O)cc2)nc(N)c(C#N)c1-c1cnc(NC(C)C)nc1 | 6% | -0.8
46 | Cc1ccc(-c2cc(C(F)(F)F)on2)cc1S(=O)(=O)NC[C@H](C)c1ccccc1 | -4% | 0.66
47 | O=C(CCc1cscn1)NC[C@H](O)c1c(Cl)cccc1Cl | -3% | 0.34
48 | COc1ccc(NC(=O)N2CC[C@H](CC(=O)NCc3ccccc3)C2)cc1OC | 37% | -5.41
49 | COc1nccnc1N(C)CC[C@H]1CCCCO1 | -8% | 1.45
50 | CC(C)N1C[C@@H]2Oc3ccc(C(F)(F)F)cc3C(=O)N(C)[C@@H]2C1 | -8% | 1.16
51 | CC1(C)[C@@H](NC(=O)Nc2nnc(C3CCOCC3)s2)[C@@H]1c1ccccc1 | -15% | 1.98
52 | Cn1nc(-c2cccc(C(=O)N[C@H]3CCNC3=O)c2)nc1N1CCCCC1 | -8% | 1.39
53 | CCC(F)(F)C(C)(C)CNC1CCCC(C(N)=O)C1 (stereo not drawn) | -2% | 0.32
54 | COc1cc(Cl)c(NC(=O)N2CC3CC2CS3(=O)=O)cc1C (stereo not drawn) | -5% | 0.99
55 | COc1cccc([C@@H](C)NC(=O)N(C)CC2(N3CCOCC3)CCCCC2)c1 | -5% | 0.68
56 | O=C(O)CCCC(=O)Nc1ccc(Br)c(Br)c1 | -23% | 2.73
57 | O=C(c1ccccc1)N1CCN(Cc2nc(C3CCCC3)no2)CC1 | -17% | 2.57
58 | Cn1ccnc1-c1ccccc1C(=O)Nc1ccc([C@@H](O)c2cccs2)cc1 | 10% | -1.23
59 | Cc1nc(CN2CC[C@@]23CCCN(C(=O)OC(C)(C)C)C3)oc1C | 0% | -0.08
60 | O=C(NC1C2CCC(C2)C1CO)C1CC2CCC1C2 (stereo not drawn) | -4% | 0.61
61 | CC(C)Oc1cc(N[C@H]2CCC[C@@H]2N(C)C)nc(N)n1 | -11% | 1.37
62 | CC(C)(O)C#Cc1cccc(C(=O)N2CCC3(CCCC3)C2)c1 | -16% | 2.36
63 | COC(=O)c1ccc([C@H]2CC(=O)Nc3ncn(-c4cccc(C(F)(F)F)c4)c32)cc1 | 30% | -3.84

Row | SMILES | % Inhibition | Z score
64 | CCOc1ccc(-c2ccnc3c(C(=O)NCc4ccc5c(c4)OCO5)cnn23)cc1 | 45% | -5.14
65 | Cc1cc(S(=O)(=O)N2CCC[C@H](n3ccnn3)C2)sc1C | -12% | 1.87
66 | Cc1nnc([C@H](C)NC2CCC3(CC2)CC3(F)F)[nH]1 (stereo partly drawn) | 4% | -0.59
67 | CCc1ccc(C2=C(C)C(N3CCC(C(=O)NC)CC3)=NS2(=O)=O)cc1 | -2% | 0.29
68 | COc1ccc(S(=O)(=O)N2CCOCC2)cc1NC(c1ccccc1)c1ccccc1 | -4% | 0.72
69 | CCN(CC)C(=O)CN1C(=O)COc2ccc(C(=O)N3CCCCC3)cc21 | -9% | 1.18
70 | CCn1cc(C)c(C(=O)O)c1CC(=O)NCc1ccc(OC)cc1 | -9% | 1.14
71 | O=C(Nc1ccc(Cl)cc1Cl)[C@@H]1CCCN1Cc1ncc(-c2ccccc2)o1 | 7% | -1.39
72 | CC(C)N1C(=O)[C@H](C)N(C(=O)NCc2ccc(N(C)C)cc2)c2cccnc21 | 4% | -0.7
73 | CN1CCNC[C@H]1c1nc(C2CC2)no1 | -11% | 2.19
74 | Cn1cc(Cl)cc1C(=O)N1C[C@H](O)[C@@H](N2CCCC2)C1 | -11% | 2.21
75 | CCCCN(C)S(=O)(=O)c1cc(-c2nnc(C)o2)co1 | -9% | 1.3
76 | COCCN1C[C@]2(CCCN(C(=O)c3ccc(C#N)nc3)C2)CCC1=O | -12% | 2.17
77 | CCCc1ccc(C(=O)N2CC[C@H](N3CCN(C)CC3)[C@H](CCC(=O)O)C2)cc1 | -17% | 1.68
78 | Cc1cc(CN(C)Cc2nonc2C)ccn1 | -5% | 0.88
79 | CC(C)c1ccc(OC2CCN([C@H]3CCCCN(CC(=O)O)C3=O)CC2)cc1 | 3% | -0.66
80 | O=S(=O)(N[C@@H](c1ccc(F)cc1)c1ccccc1Cl)c1cccs1 | -9% | 1.71
81 | Cc1nn(C)c(C)c1S(=O)(=O)N[C@@H](C)C(C)(C)C | -12% | 1.1
82 | O=C1OCc2ccc(S(=O)(=O)N3CCCC4(CCCCC4)C3)cc21 | -7% | 0.94
83 | CN(CCC(=O)O)c1nc2ccccc2nc1N1CCOCC1 | 1% | -0.15
84 | O=C(COc1ccc2ccccc2c1)NC1CCN(C2CCCCC2O)CC1 (stereo not drawn) | -8% | 0.98

— ChEMBL document CHEMBL4888484, “Replenishing the malaria drug discovery pipeline: Screening and hit evaluation of the MMV Hit Generation Library 1 (HGL1) against asexual blood stage Plasmodium falciparum ,using a nano luciferase reporter read-out” (2022)
